{"source": "PubChem BioAssay AID686979", "about": "(National Center for Advancing Translational Sciences (NCATS), 2013)", "note": "Where “and” joins values, the source holds several entries; their conditions need not be identical. Equal entries are not always repeated. Out of some 420,000 compounds screened, about 50,000 (12%) were called active. This list was built around the results that the source calls inconclusive (neither active nor inactive); the mix of calls is not that of the screen. Calls follow the shape of the dose curve; as a rule, active = well fitted inhibition curve with a large enough effect; inconclusive = small, poorly fitted or top-dose-only effect; inactive = flat fitted curve, though single readings scatter. Where the call is inconclusive, the potency comes from a doubtful curve fit. % is scaled to controls: 0 for no effect and ±100 for the full control effect; potency is read from the fitted curve at half-maximal effect; tags tell the direction and shape of the fitted curve."}
{"assay": "qHTS for Inhibitors of human tyrosyl-DNA phosphodiesterase 1 (TDP1): qHTS in cells in presence of CPT; also: nearly all actives have a fitted effect of over 55% in size", "conditions": "chicken DT40 Tdp1-/-;hTDP1 cells + 20 nM CPT, ATP luminescence, 48 h; activity change, negative = growth inhibition: at 46.2 µM (top of the series)", "summary_of_the_method": "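Chicken DT40 Tdp1-/- cells complemented with human TDP1, 400 cells/well, exposed to compounds plus 20 nM camptothecin for at least 48 h at 37 C; viability read as ATP content by CellTiter-Glo luminescence.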"}
{"smiles": "COC(=O)NCC(c1cccnc1)N1CCN(c2ccc(F)cc2)CC1", "note": "(stereo unspecified)", "Potency": "inactive"}
{"smiles": "Cn1cc(S(=O)(=O)c2ccccc2)c(=O)c2cc(Cl)ccc21", "Potency": "active: 16.4 µM"}
{"smiles": "Cc1ccccc1OCCNC(=O)CSc1ccc(C(F)(F)F)cc1[N+](=O)[O-]", "Potency": "inactive"}
{"smiles": "Cc1ccc(CN2CCCN(C)CC2)c(C)c1", "Potency": "inconclusive: 25.9 µM [inhibitor, single point]"}
{"smiles": "O=C(NCc1ccco1)c1sc(=S)n2c1[nH]c(=O)c1ccccc12", "Potency": "inactive"}
{"smiles": "COc1ccc(CN(C(=O)CN2C(=O)c3ccccc3S2(=O)=O)C(C(=O)NCC2CCCO2)c2ccco2)cc1", "note": "(stereo unspecified)", "Potency": "inactive"}
{"smiles": "CCCCCCC(=O)N1CCN(c2cc3c(cc2F)c(=O)c(C(=O)O)cn3CC)CC1", "activity change, negative = growth inhibition": "inconclusive: -37.3% [inhibitor]"}
{"smiles": "CCc1ccccc1NC(=O)CCNS(=O)(=O)c1ccc2c(c1)CCN2C(=O)C1CC1", "Potency": "inconclusive: 29.1 µM [inhibitor, single point]"}
{"smiles": "O=C(CSc1nnc(-c2ccco2)n1-c1ccccc1)NCc1ccc2c(c1)OCO2", "activity change, negative = growth inhibition": "inconclusive: -27.5% [inhibitor]"}
{"smiles": "CC(C)OC(=O)CC12CN(C)CC(CC(=O)OC(C)C)(CN(C)C1)C2=O", "Potency": "inactive"}
{"smiles": "C=CCOC(=O)C1=C(C)OC(N)=C(C#N)C1c1ccc2c(c1)OCO2", "note": "(stereo unspecified)", "Potency": "active: 25.9 µM"}
{"smiles": "COc1ccc(NC(=O)N2CCOCC2)cc1OC", "Potency": "inactive"}
{"smiles": "CC(C)N1CCC(N2CCN(Cc3ccc(-c4ccc(Cl)cc4)o3)CC2CCO)CC1", "note": "(stereo unspecified)", "Potency": "inconclusive: 20.6 µM [inhibitor, single point]"}
{"smiles": "CCOC(=O)c1cnn(-c2nc(-c3ccc(C)cc3)cs2)c1C(F)(F)F", "Potency": "inconclusive: 7.31 µM [inhibitor, partial curve]"}
{"smiles": "CCOC(=O)N1CCN(C(=O)c2cnn3c(C(F)F)cc(-c4ccc(C)cc4)nc23)CC1", "Potency": "inconclusive: 25.9 µM [inhibitor, single point]"}
{"smiles": "CC1=NN(c2ccccc2)C(=O)/C1=C\\c1cc(C)n(-c2ccccc2)c1C", "Potency": "inconclusive: 29.1 µM [inhibitor, single point]"}
{"smiles": "CCOc1cccc(/C=N/NC(=O)C2CCCC2)c1O", "Potency": "inconclusive: 20.6 µM [inhibitor, single point]"}
{"smiles": "COc1ccc(C2/C=C\\CN(S(=O)(=O)c3cccs3)CC(=O)N2Cc2ccc(F)cc2)cc1", "note": "(stereo unspecified)", "Potency": "inconclusive: 20.6 µM [inhibitor, single point]"}
{"smiles": "CCCCN(c1ccccc1)c1ncnc2nc[nH]c12", "Potency": "inconclusive: 23.1 µM [inhibitor, single point]"}
{"smiles": "O=C(CCS(=O)(=O)c1ccc(Cl)cc1)OCC(=O)N1CCCCC1", "Potency": "inactive"}
{"smiles": "C/C(=N\\NC(=O)CNc1cccc2ccccc12)c1ccccc1", "Potency": "inconclusive: 0.206 µM [inhibitor, partial curve]"}
{"smiles": "O=C(O)c1ccccc1NS(=O)(=O)c1ccc2c(c1)OCCO2", "Potency": "inactive"}
{"smiles": "CC(C)N(Cc1ccccc1)C(=O)CN1c2cccc3cccc(c23)S1(=O)=O", "Potency": "inconclusive: 20.6 µM [inhibitor, single point]"}
{"smiles": "Cc1noc(C)c1-c1nc(N(C)Cc2ccco2)c2ccccc2n1", "Potency": "inconclusive: 16.4 µM [inhibitor, partial curve, poor fit]"}
{"smiles": "Cc1ccc(S(=O)(=O)N2CCN(CCc3ccccc3)CC2)c(C)c1", "Potency": "inactive"}
{"smiles": "Nc1ncnc2c1ncn2[C@H]1C[C@H](O)[C@@H](CO)O1", "Potency": "active: 6.51 µM"}
{"smiles": "COCCN(C(=O)c1ccc(OCC(C)C)cc1)c1c(N)n(Cc2ccccc2)c(=O)[nH]c1=O", "Potency": "inactive"}
{"smiles": "NC(=O)c1ccsc1NC(=O)COC(=O)Cc1n[nH]c(=O)c2ccccc12", "Potency": "inconclusive: 3.66 µM [inhibitor, full curve, poor fit]"}
{"smiles": "Cc1ccc2[nH]c(=O)c(CN(Cc3ccccc3)Cc3nnnn3C3CCCC3)cc2c1", "Potency": "active: 20.6 µM"}
{"smiles": "CCCCCCCCCCCCN1[C@@H](CC(=O)O)c2cc(C(F)(F)F)ccc2S1(=O)=O", "Potency": "inconclusive: 35.5 µM [inhibitor, single point] and inconclusive: 29.1 µM [inhibitor, single point]"}
{"smiles": "COc1ccc2nc(SCC(=O)NC3(C#N)CCCCC3)[nH]c2c1", "Potency": "inactive"}
{"smiles": "Cc1ccc(NC(=O)c2cc(-c3ccc(Br)s3)nc3ccccc23)cc1F", "Potency": "inconclusive: 1.46 µM [inhibitor, partial curve]"}
{"smiles": "C=CCn1c(SCCN)nnc1-c1cccc(S(=O)(=O)N2CCOCC2)c1", "Potency": "inactive"}
{"smiles": "Nc1c(C(=O)CSc2nnc(Cc3ccccc3)o2)c(=O)[nH]c(=O)n1C1CC1", "Potency": "inactive"}
{"smiles": "Cc1ccc(-n2ncc3c(Nc4cccc(C)c4C)ncnc32)cc1", "Potency": "inconclusive: 29.1 µM [inhibitor, single point]"}
{"smiles": "Cc1[nH][nH]c(=O)c1N=Nc1ccc(Cl)cc1", "Potency": "inconclusive: 6.51 µM [inhibitor, partial curve]"}
{"smiles": "CCC(C)NS(=O)(=O)c1ccc(NC(=O)C(Sc2ccccc2)c2ccccc2)cc1", "note": "(stereo unspecified)", "Potency": "inconclusive: 29.1 µM [inhibitor, single point]"}
{"smiles": "Cc1ccc2c(CC(=O)Nc3ccc(S(=O)(=O)N4CCCCC4)cc3)coc2c1", "Potency": "inconclusive: 29.1 µM [inhibitor, single point]"}
{"smiles": "Cc1ccc(Cl)cc1NC(=O)Cn1c(=O)oc2cc(S(=O)(=O)N3CCCC3)ccc21", "Potency": "active: 23.1 µM"}
{"smiles": "Cc1cccc(C(=O)OCC(=O)Nc2c(C)n(C)n(-c3ccccc3)c2=O)c1O", "Potency": "inactive"}
{"smiles": "COc1ccc(C(=O)Nc2cc3c4c(c2)C(C)C(=O)N4CCC3)c(OC)c1", "note": "(stereo unspecified)", "Potency": "inconclusive: 23.1 µM [inhibitor, single point]"}
{"smiles": "COc1ccc(CNC(=O)CN2CCN(c3ccc(F)cc3)CC2)cc1", "Potency": "inactive"}
{"smiles": "OC(Cc1cccnc1)(Cc1cccnc1)c1cc2ccccc2[nH]1", "Potency": "inactive"}
{"smiles": "CNC(=O)CSc1nc2nn(-c3ccccc3)c(=O)c-2c2n1CCCCC2", "Potency": "inactive"}
{"smiles": "CC1(C)OC(=O)C2=C(C[C@@H](C3CCCC3)O[C@@H]2c2ccc(Cl)cc2)O1", "Potency": "inconclusive: 16.4 µM [inhibitor, single point]"}
{"smiles": "NC(=O)C(c1ccc(Sc2ccccc2)nn1)c1ccc(Cl)cc1Cl", "note": "(stereo unspecified)", "Potency": "inconclusive: 32.6 µM [inhibitor, single point]"}
